Reference: the BET-seq Pho4 binding data (Le et al. 2018)
Some of the results follow. These are noisy estimates, calculated here from bound and input reads.

Each sequence was assayed against T1, Pho4 (S. cerevisiae) (UniProt P07270) (assay: relative binding free energy (BET-seq); higher = weaker binding). Details: reference: library average.
T1 sequence: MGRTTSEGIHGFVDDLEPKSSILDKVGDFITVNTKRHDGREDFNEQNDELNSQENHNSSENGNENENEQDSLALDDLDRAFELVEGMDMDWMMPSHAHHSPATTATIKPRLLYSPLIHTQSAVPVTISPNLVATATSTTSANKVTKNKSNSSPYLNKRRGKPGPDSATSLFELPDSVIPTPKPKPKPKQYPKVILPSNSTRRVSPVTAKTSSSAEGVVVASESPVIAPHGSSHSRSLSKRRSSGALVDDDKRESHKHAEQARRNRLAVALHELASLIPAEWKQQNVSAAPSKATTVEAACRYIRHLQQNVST

Sequence | relative binding free energy
GGGAGCACGTGTATTG | -0.1 kcal/mol
CATATCACGTGATGTG | 0.21 kcal/mol
TTAGTCACGTGTTCGG | 0.12 kcal/mol
GGGCTCACGTGTAGTA | 0.25 kcal/mol
TTGGACACGTGAGTGT | 0.17 kcal/mol
TAGGGCACGTGAGTGG | 0.05 kcal/mol
TAGAGCACGTGTGAGA | 0.03 kcal/mol
GATGGCACGTGAATGT | 0.15 kcal/mol
AGAATCACGTGCTGGT | 0.25 kcal/mol
TGGGCCACGTGTAGAT | 0.1 kcal/mol
GTACGCACGTGGAGTT | 0.02 kcal/mol
AGGTACACGTGTGATG | 0.31 kcal/mol
TTGTGCACGTGGTCGC | -0.16 kcal/mol
GCTTGCACGTGCCTGG | 0.12 kcal/mol
TTAGCCACGTGGGGAA | -0.22 kcal/mol
TTCTGCACGTGTGATG | 0.21 kcal/mol
TGTTTCACGTGGCGGG | 0.19 kcal/mol
GCTTTCACGTGGATTG | 0.3 kcal/mol
ATTCTCACGTGTAGTA | 0.35 kcal/mol
AAGTTCACGTGATTGG | 0.43 kcal/mol
TGGCGCACGTGGTTTA | -0.01 kcal/mol
GTGACCACGTGTGAGG | 0.13 kcal/mol
TTGGCCACGTGGCGTT | -0.27 kcal/mol

Sequence | relative binding free energy
TGTATCACGTGGCTCG | 0 kcal/mol
GTTACCACGTGGGATT | 0.03 kcal/mol
TTGATCACGTGTTATT | 0.07 kcal/mol
AGCGTCACGTGGGGCG | -0.03 kcal/mol
TTGGTCACGTGCATTG | 0.1 kcal/mol
TGGGACACGTGATTTA | 0.21 kcal/mol
AGGCTCACGTGTGGTA | 0.06 kcal/mol
AGCATCACGTGCGGGT | 0.02 kcal/mol
CGTGGCACGTGGTAAG | -0.19 kcal/mol
GGATACACGTGGATTT | 0.12 kcal/mol
TGTGGCACGTGGGATC | -0.15 kcal/mol
TGCTGCACGTGTCGGG | 0.04 kcal/mol
AGGTACACGTGATGTG | 0.09 kcal/mol
TTTCTCACGTGGGGGA | 0.13 kcal/mol
GGGTGCACGTGGAGAA | -0.02 kcal/mol
GTGCGCACGTGTATTG | -0.04 kcal/mol
GATACCACGTGGTTGG | -0.02 kcal/mol
AAGGACACGTGATTGT | 0.14 kcal/mol
AGTGTCACGTGTGTTA | 0.09 kcal/mol
TTAGGCACGTGTTTTC | -0.05 kcal/mol
TATTTCACGTGTTAGT | 0.35 kcal/mol
ATGGTCACGTGTAAAG | 0.12 kcal/mol
AAGGGCACGTGGGGAG | -0.21 kcal/mol

Sequence | relative binding free energy
TATTTCACGTGTGGTT | 0.36 kcal/mol
TTGGGCACGTGAGGGC | 0.16 kcal/mol
TAAGTCACGTGTGTTC | 0.22 kcal/mol
TAATGCACGTGGTGTT | -0.11 kcal/mol
ATAGGCACGTGGGTTT | -0.19 kcal/mol
TATATCACGTGGACGT | 0.16 kcal/mol
TTTGTCACGTGCCGTA | -0.07 kcal/mol
GCGTTCACGTGGTGTA | 0.38 kcal/mol
TGATTCACGTGATGAT | 0.28 kcal/mol
CGTTTCACGTGGGTCA | 0.08 kcal/mol
AACATCACGTGGGTGG | -0.01 kcal/mol
TTAATCACGTGTACTT | 0.03 kcal/mol
CAGTGCACGTGTGGCG | 0.03 kcal/mol
GGTAGCACGTGAACGG | 0.13 kcal/mol
ATTTGCACGTGGATCA | 0.2 kcal/mol
TTTGCCACGTGGTGGT | -0.19 kcal/mol
GAATTCACGTGGATGT | 0.32 kcal/mol
AACGGCACGTGACGGG | 0.09 kcal/mol
TTAGACACGTGATGAT | 0.09 kcal/mol
TACATCACGTGAGGGG | 0.14 kcal/mol
AAGGTCACGTGGGATG | 0.17 kcal/mol
TTGGTCACGTGAGCGC | 0.24 kcal/mol
TGGTTCACGTGGTATT | 0.2 kcal/mol

Sequence | relative binding free energy
GGCGACACGTGAGGAG | 0.2 kcal/mol
TGTTGCACGTGCTAGA | -0.08 kcal/mol
GTGAGCACGTGGAGGG | -0.25 kcal/mol
TTTCACACGTGGTGGA | 0.12 kcal/mol
TTGGTCACGTGCGGGA | 0.08 kcal/mol
GTTGTCACGTGCGCGT | -0.02 kcal/mol
GTGGTCACGTGCGTTT | 0.2 kcal/mol
GAGTGCACGTGACATG | 0.2 kcal/mol
GGGTCCACGTGTATGG | 0.09 kcal/mol
CGTTACACGTGAAGTT | 0.25 kcal/mol
AATAGCACGTGTTAGG | -0.05 kcal/mol
ACCTGCACGTGTGTTG | 0.08 kcal/mol
CTGTTCACGTGGGAGT | 0.07 kcal/mol
AATGACACGTGGGTGA | 0.09 kcal/mol
TTTGTCACGTGAATCG | 0.28 kcal/mol
GTTAACACGTGTTTTT | 0.08 kcal/mol
AAATGCACGTGTTATG | -0.04 kcal/mol
GTGTACACGTGTAAGT | 0.16 kcal/mol
GGGTACACGTGGTCTA | 0 kcal/mol
AGTCACACGTGGGTGT | -0.1 kcal/mol
TTTTGCACGTGAGACG | 0.16 kcal/mol
GATGTCACGTGGGGCC | 0.12 kcal/mol
TTGTACACGTGGCGTA | -0.14 kcal/mol

Sequence | relative binding free energy
TGCTGCACGTGAGTTT | 0.21 kcal/mol
TGTTTCACGTGGAGAC | 0.2 kcal/mol
GGACTCACGTGGGAAG | 0.27 kcal/mol
ATGTTCACGTGTAGAC | 0.25 kcal/mol
TAAGACACGTGTTGAT | -0.09 kcal/mol
TAAGTCACGTGCGTTA | -0.05 kcal/mol
TTTGCCACGTGCGGGA | -0.16 kcal/mol
AAGATCACGTGTGAGG | 0.23 kcal/mol
TTCTTCACGTGGGAGG | 0.25 kcal/mol
TGGCTCACGTGTATTT | 0.1 kcal/mol
ATGGACACGTGGCTGG | -0.04 kcal/mol
AGTATCACGTGCGTTG | -0.09 kcal/mol
TTAAGCACGTGGCATG | -0.18 kcal/mol
TTTGGCACGTGCGTCG | -0.22 kcal/mol
AAGTACACGTGATGGA | 0.18 kcal/mol
GGGTCCACGTGAGGGC | 0.1 kcal/mol
ATCGGCACGTGAAGGT | 0.2 kcal/mol
ACCGGCACGTGGGGTT | -0.22 kcal/mol
AAATGCACGTGAGGTA | 0.1 kcal/mol
GTTTACACGTGAGTAG | 0.31 kcal/mol
ATGTGCACGTGATGGT | 0.04 kcal/mol
ATGAGCACGTGTAGAG | 0.01 kcal/mol
ATGAACACGTGTTAGT | -0.11 kcal/mol
